We go through 1 molecule from paper PMC10020501.

This assay concerns the target T1, GFP-tagged human IKKϵ (IKKϵ-GFP) (human) (UniProt Q14164).
T1 sequence: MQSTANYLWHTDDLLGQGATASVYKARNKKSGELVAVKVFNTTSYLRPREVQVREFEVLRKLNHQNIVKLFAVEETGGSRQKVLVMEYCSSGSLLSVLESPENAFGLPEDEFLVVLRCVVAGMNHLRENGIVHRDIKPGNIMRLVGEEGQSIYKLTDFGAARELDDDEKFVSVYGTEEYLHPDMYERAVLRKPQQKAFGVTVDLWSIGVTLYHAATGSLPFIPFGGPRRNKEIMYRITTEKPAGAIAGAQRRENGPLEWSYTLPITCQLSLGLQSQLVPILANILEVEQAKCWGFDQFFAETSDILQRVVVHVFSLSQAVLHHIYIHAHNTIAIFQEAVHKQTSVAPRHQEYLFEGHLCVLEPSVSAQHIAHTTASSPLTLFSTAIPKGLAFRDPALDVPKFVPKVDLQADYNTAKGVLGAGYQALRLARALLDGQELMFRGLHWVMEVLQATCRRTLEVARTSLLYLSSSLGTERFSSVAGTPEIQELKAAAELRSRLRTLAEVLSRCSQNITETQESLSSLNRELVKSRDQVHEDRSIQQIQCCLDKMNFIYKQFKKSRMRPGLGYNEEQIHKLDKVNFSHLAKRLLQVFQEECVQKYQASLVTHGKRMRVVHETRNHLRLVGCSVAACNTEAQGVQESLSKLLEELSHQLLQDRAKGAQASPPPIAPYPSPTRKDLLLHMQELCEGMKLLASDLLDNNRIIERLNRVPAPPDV
Put plainly: co-IP; IKKϵ-GFP precipitated with GFP-trap magnetic agarose beads (GFP nanobody) from lysates of IKKϵ-deficient THP1-Dual cells stably expressing IKKϵ-GFP; cells treated with MG-132 (10 µM, 6 h); TAP lysis buffer with N-ethylmaleimide, overnight at 4°C; immunoblot. On the technique in general: Immunoblotting shows a protein as a band on a membrane.

No constants are given. Whether binding was seen depends on the method and setting. Binding seen in cells or lysates may run through a third protein. Some binding calls cover weakened binding; strength is not graded here. Where a sequence is shown, tags or fusion partners need not be part of it.

B1: TANK-binding kinase (TBK1), endogenous (enzyme, UniProt Q9UHD2 1-729)
chain: MQSTSNHLWLLSDILGQGATANVFRGRHKKTGDLFAIKVFNNISFLRPVDVQMREFEVLKKLNHKNIVKLFAIEEETTTRHKVLIMEFCPCGSLYTVLEEPSNAYGLPESEFLIVLRDVVGGMNHLRENGIVHRDIKPGNIMRVIGEDGQSVYKLTDFGAARELEDDEQFVSLYGTEEYLHPDMYERAVLRKDHQKKYGATVDLWSIGVTFYHAATGSLPFRPFEGPRRNKEVMYKIITGKPSGAISGVQKAENGPIDWSGDMPVSCSLSRGLQVLLTPVLANILEADQEKCWGFDQFFAETSDILHRMVIHVFSLQQMTAHKIYIHSYNTATIFHELVYKQTKIISSNQELIYEGRRLVLEPGRLAQHFPKTTEENPIFVVSREPLNTIGLIYEKISLPKVHPRYDLDGDASMAKAITGVVCYACRIASTLLLYQELMRKGIRWLIELIKDDYNETVHKKTEVVITLDFCIRNIEKTVKVYEKLMKINLEAAELGEISDIHTKLLRLSSSQGTIETSLQDIDSRLSPGGSLADAWAHQEGTHPKDRNVEKLQVLLNCMTEIYYQFKKDKAERRLAYNEEQIHKFDKQKLYYHATKAMTHFTDECVKKYEAFLNKSEEWIRKMLHLRKQLLSLTNQCFDIEEEVSKYQEYTNELQETLPQKMFTASSGIKHTMTPIYPSSNTLVEMTLGMKKLKEEMEGVVKELAENNHILERFGSLTMDGGLRNVDCL
Take B1: the binding result is “binds”.
